Measured values: patent US20230322822A1, “ARYL PHOSPHOROUS OXIDE COMPOUNDS AND USE THEREOF” (Chengdu Di'ao Jiuhong Pharmaceutical Factory, priority 2020, published 2023)

Columns and labels:
Format in all cases: biochemical
Conditions in all cases: kinase
[1] = target: EGFR-T790M/L858R (Homo sapiens (Human), UniProt P00533, L858R/T790M); assay: Enzymatic activity test (ADP-Glo) EGFR-T790M/L858R
Experimental: (§1) • 1. […] Test information:
(§2) To assess the effect of compounds on the activity of wild-type and mutant EGFR kinases, kinase activity was tested by measuring ATP consumption in an enzymatic reaction using an ADP-Glo (Promega Corporation) kit. Samples to be tested were dissolved in DMSO and diluted in a gradient. In a microplate, an EGFR kinase, a reaction buffer (containing Tris-HCl with a pH of 7.5, MgCl2, DTT and BSA), a kinase substrate Poly(Glu4, Tyr1) and a sample (a total volume of 20 μL per well) were added per well, while a blank control (no enzyme and sample) and a negative control (no sample) were set up; incubated for 15 minutes at 23° C.; added with 5 μL of ATP, and reacted at 23° C. for 60 minutes; added with ADP-Glo Reagent, and continuously reacted for 40 minutes at room temperature to inactivate the redundant ATP; then, added with a Kinase Detection Reagent, and reacted at room temperature for 30 minutes, then the chemiluminescence intensity L of each well was measured. […] IC50 values were calculated according to the above calculation using 4Parameter Logistic Model in XLfit software. • 3.

[2] = target: EGFR-T790M/Del19 (Homo sapiens, UniProt P00533, T790M, form not given); assay: Enzymatic activity test (ADP-Glo) EGFR-T790M/Del19
Experimental: as §1, §2

[3] = target: EGFR-Del19 (Homo sapiens, UniProt P00533); assay: Enzymatic activity test (ADP-Glo) EGFR-Del19
Experimental: as §1, §2

Chain of EGFR-T790M/L858R (P00533 25-1210 T790M/L858R): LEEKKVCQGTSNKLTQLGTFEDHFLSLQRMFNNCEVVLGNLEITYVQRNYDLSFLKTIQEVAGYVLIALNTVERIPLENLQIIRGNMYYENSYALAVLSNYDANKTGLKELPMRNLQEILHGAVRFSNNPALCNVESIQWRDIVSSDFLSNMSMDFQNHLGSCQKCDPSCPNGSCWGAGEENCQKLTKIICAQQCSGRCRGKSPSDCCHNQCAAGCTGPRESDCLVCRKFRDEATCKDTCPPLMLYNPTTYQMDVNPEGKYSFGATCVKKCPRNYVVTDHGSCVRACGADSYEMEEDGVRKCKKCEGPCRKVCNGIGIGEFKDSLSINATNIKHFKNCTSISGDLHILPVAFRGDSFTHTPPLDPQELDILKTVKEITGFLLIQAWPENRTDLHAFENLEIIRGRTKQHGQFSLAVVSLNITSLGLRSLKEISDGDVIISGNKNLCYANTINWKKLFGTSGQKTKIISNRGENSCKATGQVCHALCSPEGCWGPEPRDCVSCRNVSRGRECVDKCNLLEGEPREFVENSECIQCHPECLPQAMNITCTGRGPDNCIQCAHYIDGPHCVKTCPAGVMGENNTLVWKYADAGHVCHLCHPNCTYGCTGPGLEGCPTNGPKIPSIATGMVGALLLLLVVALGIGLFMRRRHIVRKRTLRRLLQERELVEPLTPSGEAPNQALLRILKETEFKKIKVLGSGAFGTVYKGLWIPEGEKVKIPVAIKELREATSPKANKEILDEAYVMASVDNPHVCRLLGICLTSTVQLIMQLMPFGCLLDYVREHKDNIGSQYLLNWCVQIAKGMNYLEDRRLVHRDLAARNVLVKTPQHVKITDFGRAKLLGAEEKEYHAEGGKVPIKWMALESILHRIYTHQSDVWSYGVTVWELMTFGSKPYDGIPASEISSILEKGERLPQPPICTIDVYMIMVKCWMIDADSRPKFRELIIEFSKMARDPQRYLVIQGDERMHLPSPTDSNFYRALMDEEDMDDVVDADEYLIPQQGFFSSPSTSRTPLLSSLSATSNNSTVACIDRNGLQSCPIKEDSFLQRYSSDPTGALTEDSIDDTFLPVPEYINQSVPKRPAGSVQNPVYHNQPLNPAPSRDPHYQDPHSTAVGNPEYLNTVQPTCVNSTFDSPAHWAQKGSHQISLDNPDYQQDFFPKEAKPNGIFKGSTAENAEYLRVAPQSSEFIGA
Chain of EGFR-Del19 (P00533 25-1210 limits assumed): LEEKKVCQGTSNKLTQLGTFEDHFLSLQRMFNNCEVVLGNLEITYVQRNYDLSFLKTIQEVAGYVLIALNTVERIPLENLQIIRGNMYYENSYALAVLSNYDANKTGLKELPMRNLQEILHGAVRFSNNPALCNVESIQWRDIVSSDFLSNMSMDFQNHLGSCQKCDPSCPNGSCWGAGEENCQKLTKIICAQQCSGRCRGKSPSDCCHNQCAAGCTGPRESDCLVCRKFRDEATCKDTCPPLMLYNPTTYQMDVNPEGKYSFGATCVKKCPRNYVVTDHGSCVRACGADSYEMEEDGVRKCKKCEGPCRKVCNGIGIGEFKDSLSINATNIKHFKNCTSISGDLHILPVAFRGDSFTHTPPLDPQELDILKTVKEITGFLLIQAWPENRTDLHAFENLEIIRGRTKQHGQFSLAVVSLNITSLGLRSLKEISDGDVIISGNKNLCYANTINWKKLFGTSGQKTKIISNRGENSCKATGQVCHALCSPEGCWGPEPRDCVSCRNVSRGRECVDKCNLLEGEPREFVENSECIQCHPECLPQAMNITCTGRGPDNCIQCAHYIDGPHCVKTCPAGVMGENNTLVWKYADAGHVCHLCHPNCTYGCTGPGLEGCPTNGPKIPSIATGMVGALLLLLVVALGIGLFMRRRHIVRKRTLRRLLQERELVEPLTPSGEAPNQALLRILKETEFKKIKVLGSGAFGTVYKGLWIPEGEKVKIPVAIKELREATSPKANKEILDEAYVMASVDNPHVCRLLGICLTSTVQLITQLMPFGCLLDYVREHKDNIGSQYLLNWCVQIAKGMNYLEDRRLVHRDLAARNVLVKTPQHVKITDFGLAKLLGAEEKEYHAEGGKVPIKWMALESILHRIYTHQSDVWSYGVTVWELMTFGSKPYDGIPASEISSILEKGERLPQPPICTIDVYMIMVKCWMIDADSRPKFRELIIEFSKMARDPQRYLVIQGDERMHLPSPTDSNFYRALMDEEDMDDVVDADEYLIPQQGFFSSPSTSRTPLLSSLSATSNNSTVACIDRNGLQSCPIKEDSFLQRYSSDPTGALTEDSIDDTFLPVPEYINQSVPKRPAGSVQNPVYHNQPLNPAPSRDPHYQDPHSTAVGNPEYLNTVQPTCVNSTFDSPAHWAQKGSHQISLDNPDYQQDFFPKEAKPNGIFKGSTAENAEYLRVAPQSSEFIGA

SMILES	pIC50 [1]	pIC50 [2]	pIC50 [3]
CCc1cc(Nc2ncc(Br)c(Nc3ccc(C)cc3P(C)(C)=O)n2)c(OC)cc1N1CCC(N2CCN(C)CC2)CC1 [Compound 12]	7.69	8.16	7.47
COc1cc(N2CCC(N3CCN(C)CC3)CC2)c(C)cc1Nc1ncc(Br)c(Nc2ccc(F)cc2P(C)(C)=O)n1 [Compound 11]	7.60	–	–

pIC50: −log10 of the molar value.
